The whole screen tested about 48,000 compounds, of which about 550 (1.1%) were called active. The shares of active, inactive and inconclusive entries below differ from those in the screen. Cut-off read from the data, not from the text of the source: active = potency below about 15 µM; inconclusive = mostly about 16 µM to 33 µM; inactive = weaker than that. Where the call is inconclusive, the potency comes from a doubtful curve fit.
molecular target: Lysosomal acid glucosylceramidase (Homo sapiens) (UniProt P04062); experiment: Glucocerebrosidase; settings: purified enzyme, resorufin glucoside fluorescence (screen aimed at inhibitors), 20 min;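 note: the screen sought inhibitors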
How it was run: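 Wild-type enzyme at 0.2 nM final in 50mM citric acid/KH2PO4, 10mM sodium taurocholate, 0.01% tween-20, pH 5.9, with resorufin beta-D-glucopyranoside at 30 uM final. Compounds titrated, 20 min at RT, red fluorescence read; AC50 from titration.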
Potency is the fitted concentration of half-maximal effect.

UniProt P04062, sequence (P04062 whole entry, looked up): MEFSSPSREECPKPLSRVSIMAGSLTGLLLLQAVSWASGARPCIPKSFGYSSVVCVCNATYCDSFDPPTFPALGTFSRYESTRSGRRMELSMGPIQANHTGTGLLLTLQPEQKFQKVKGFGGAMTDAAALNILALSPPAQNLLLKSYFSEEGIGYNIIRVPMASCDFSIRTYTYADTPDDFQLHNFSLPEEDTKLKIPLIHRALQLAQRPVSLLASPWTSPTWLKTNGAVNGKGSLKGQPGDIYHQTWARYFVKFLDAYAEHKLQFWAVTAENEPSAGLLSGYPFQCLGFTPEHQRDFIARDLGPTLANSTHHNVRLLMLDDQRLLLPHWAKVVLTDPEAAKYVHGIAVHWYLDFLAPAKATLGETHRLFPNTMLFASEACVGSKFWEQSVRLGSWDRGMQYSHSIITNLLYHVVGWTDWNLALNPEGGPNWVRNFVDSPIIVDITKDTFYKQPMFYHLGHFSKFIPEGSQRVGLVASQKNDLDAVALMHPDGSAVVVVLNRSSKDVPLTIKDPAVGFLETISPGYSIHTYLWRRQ

Potency, inactive:
COc1ccc(-n2c(SCc3nnc(-c4ccccc4)o3)nnc2-c2ccccc2)cc1 > 76.9 µM
COCCn1cc(C(=O)N2CCC(C)CC2)c2c3ccccc3n(C)c2c1=O > 76.9 µM
Cc1ccc2[nH]c(=O)c(CN(C)C(=O)c3ccccn3)cc2c1 > 76.9 µM
O=C(O)C(Oc1ccc2c3c(c(=O)oc2c1)CCC3)c1ccccc1 (stereo not drawn) > 76.9 µM
Cc1ccnc(NC(=O)CCC(=O)N(CC(=O)NC(C)(C)C)C2CCCC2)c1 > 76.9 µM
COC(=O)c1[nH]c2cc(C)ccc2c1NC(=O)CN1CCN(C(=O)c2ccco2)CC1 > 76.9 µM
c1cncc(-c2nc(NCc3ccco3)c3ccccc3n2)c1 > 76.9 µM
CCC(C(=O)O)n1nnc(-c2ccc(-c3ccc(OC)cc3)cc2)n1 (stereo not drawn) > 76.9 µM
COc1ccc(OC)c(N/C=C2/CCCCC2=O)c1 > 76.9 µM
Cc1ccc(-n2cc3c(=O)n(C)c(=O)n(C)c3c2)cc1C > 76.9 µM
CC(C)CCNC(=O)NC(=O)CSc1nnc(COc2ccccc2Cl)o1 > 76.9 µM
COc1cc(S(=O)(=O)N(C)C)ccc1F > 76.9 µM
COC(=O)Nc1ccc(S(=O)(=O)N2c3ccccc3CCC2C)cc1 (stereo not drawn) > 76.9 µM
COc1ccc(N(C(=O)c2ccco2)C(C(=O)NC2CCCC2)c2ccc(N(C)C)cc2)cc1OC (stereo not drawn) > 76.9 µM

Potency, active:
CCOC(=O)c1c(NC(=O)c2nn(CC)cc2Br)sc2c1CCCCC2 5.22 µM
Cc1nc2c(-c3ccccc3)c(C)[nH]n2c(=O)c1Cl 5.44 µM
CCc1nnc2c3cnn(-c4ccc(C)c(C)c4)c3ncn12 0.214 µM

Potency, inconclusive:
COC(=O)CCC(=O)Nc1ccc(S(=O)(=O)N2CCCCCC2)cc1 24.6 µM [decreasing]
CCNC(=O)C1CC(=O)N(Cc2ccc(F)cc2)C(=Nc2ccc(OC)cc2)S1 (stereo not drawn) 16.2 µM [decreasing]
N#CC1=C(SCc2ccccc2)NC(=O)C(C#N)C12CCCC2 (stereo not drawn) 24.3 µM [decreasing]
CCc1ccc(NC(=O)c2cccnc2)cc1 27.7 µM [decreasing]
O=C(CSc1nnc(-c2ccc(O)cc2)n1Cc1ccco1)N1CCc2ccccc2C1 16.3 µM [decreasing]
O=C(CNCCC1=CCCCC1)Nc1ccccc1N1CCCCC1 19 µM [decreasing]
CCOC(=O)c1c(C)n(C)c2ccc(OCC(O)CN3C(=O)c4ccccc4S3(=O)=O)cc12 (stereo not drawn) 23 µM [increasing]
CN1CCC(N(C)C(=O)c2ccccc2Nc2ccc(SC(F)F)cc2)CC1 17.1 µM [decreasing]
CCCC(=O)Nc1ccc2oc(-c3cccnc3)nc2c1 33.4 µM [decreasing]
CC(C)(C)c1ccc(S(=O)(=O)NCCOCC(F)(F)C(F)F)cc1 23.9 µM [decreasing]
CCOCCN1CCN(c2c3c(nc4cc(-c5ccc(F)cc5)nn24)CCC3)CC1 23.4 µM [decreasing]
CCOc1ccc2nc(C(C)O)[nH]c2c1 (stereo not drawn) 30.8 µM [decreasing]
Cn1c(CNc2nc(-c3ccccc3)cs2)nnc1SCC(=O)c1ccccc1 31.3 µM [decreasing]
N#Cc1nc(COc2ccc(F)cc2)oc1NCCCn1ccnc1 33.1 µM [decreasing]
CC(c1ccccc1)n1cc(C(=O)NCCN2CCOCC2)nn1 (stereo not drawn) 17.9 µM [decreasing]
O=C(NCCCn1ccnc1)C1CC(c2cccc(Br)c2)=NO1 (stereo not drawn) 19.5 µM [decreasing]
C=CCn1c(SCC(=O)N2CC(=O)Nc3ccccc32)nc2scc(-c3cccs3)c2c1=O 23.2 µM [decreasing]
Cc1ccc(-c2noc(CCC(=O)Nc3ccccc3N3CCN(C)CC3)n2)cc1 17.4 µM [decreasing]
Clc1ccc(C2=Nn3c(nnc3-c3n[nH]c4c3CCC4)SC2)cc1 19.6 µM [decreasing]
N#Cc1c(-c2ccco2)cc(-c2cccnc2)nc1N 20 µM [decreasing]
Cc1cccc(N2CCN(C(=O)c3ccc(NS(=O)(=O)c4c(C)noc4C)cc3)CC2)c1C 26.6 µM [decreasing]
Cc1cccc(N2CCN(C(=O)CCCn3c(=S)[nH]c4cc5c(cc4c3=O)OCO5)CC2)c1C 25.8 µM [decreasing]
CCC(C)(C)n1nnnc1C(c1ccc(Cl)cc1)N1CCN(C)CC1 (stereo not drawn) 23.9 µM [decreasing]
CC(=O)Nc1ccc(S(=O)(=O)NCc2ccc(C(=O)NCCN3CCCCCC3)cc2)cc1 30 µM [decreasing]
CC1(C)NC(=O)N(CCCOc2ccc3c(c2)CCC3)C1=O 24.8 µM [increasing]
CC(=O)N1CN(CCCn2ccnc2)Cc2c1sc1c2CCCC1 15.6 µM [decreasing]
COC(=O)c1cc2sc(Cl)cc2n1CC(=O)N1CCCc2ccccc21 24.5 µM [decreasing]
CCN(CC)CCCN(C(=O)c1cccs1)c1nc(-c2ccc(OC)cc2)cs1 17.2 µM [decreasing]
O=C(COc1ccc(S(=O)(=O)NC2CCCCC2)cc1Cl)NCc1cccnc1 28 µM [decreasing]
O=C(NCc1ccccc1)c1c[nH]c2ccc(S(=O)(=O)Nc3ccc4c(c3)OCCO4)cc2c1=O 15.8 µM [decreasing]
CN(C(=O)c1cc2n(n1)C(C(F)(F)F)CC(c1ccco1)N2)c1ccccc1 (stereo not drawn) 30.4 µM [decreasing]

Source: PubChem BioAssay AID360 (National Center for Advancing Translational Sciences (NCATS), 2006)
